Measured values as given in publication PMC4830470.

Target: human class B J-protein DNAJB1 (JB1), wild type (human), P25685
Experiment: SEC
Details: remark: other sources report otherwise

B1: human class B J-protein DNAJB1 (JB1), wild type (natural protein)
chain: MGKDYYQTLGLARGASDEEIKRAYRRQALRYHPDKNKEPGAEEKFKEIAEAYDVLSDPRKREIFDRYGEEGLKGSGPSGGSGGGANGTSFSYTFHGDPHAMFAEFFGGRNPFDTFFGQRNGEEGMDIDDPFSGFPMGMGGFTNVNFGRSRSAQEPARKKQ[skipping about 150 residues]PERIPQTSRTVLEQVLPI
stoichiometry N: 2
